Here are results for 22 molecules from paper PMC12136788.

To fix the notation:
B1: ENSG00000107863:be:win_101|CDS|ENSG00000107863|bound_else_gene|NA|bound_elsewhere_windowed (ssRNA)
RNA: GGGAGUUCUACAGUCCGACGAUCCUGUAUCACUGUCUGAAGAUGAAACAUUCUCCUGGCCAGGUCCCAAAACAGUUACGUUGAAAAGAACAUCUCAAGGCUUUGGUUUUACAUUAAGACAUUUUAUUGUUUAUCCCCCAGAGUCAACAGAGGAUUGAGCAUCA
B2: ENSG00000197321:stop:overlap|stop_codon|ENSG00000197321|stop_codon|NA|stop_codon (ssRNA)
RNA: GGGAGUUCUACAGUCCGACGAUCAGUUCCAUGAGGGGGAUGCCUAUGUGGUCAAGUGGAAGUUCAUGGUGAGCACGGCAGGUUAGUGAGCGCUUGUGGUUUUUUCCAGCUGAAAGAGGCUGGCCCGGCAGCCCUGCGGGAGCCCAACAGAGGAUUGAGCAUCA
B3: chrX:120627021:120627135:-|CDS|ENSG00000171155|unk|FALSE|unique (ssRNA)
RNA: GGGAGUUCUACAGUCCGACGAUCUUGAAGGGUGUGAUGCUUGGAAGCAUUUUCUGUGCUUUGAUCACUAUGCUAGGACACAUUAGGAUUGGUCAUGGAAAUAGAAUGCACCACCAUGAGCAUCAUCACCUACAAGCUCCUAACCAACAGAGGAUUGAGCAUCA
B4: ENSG00000124766:be:win_2451|3pUTR|ENSG00000124766|bound_else_gene|NA|bound_elsewhere_windowed (ssRNA)
RNA: GGGAGUUCUACAGUCCGACGAUCAAAAAAGAAAAAAAAAAGAUUUUUUUCUUCUCUUAAUCGGAAUCGUGAUGGUGUUGGAUUAUUUCAAUGGUGGGGUUAAUAUAGCAUGUUAUCCUGUCUAUCUUUUAAAGAUUUCUGUAUCAACAGAGGAUUGAGCAUCA
B5: ENSG00000107863:be:win_2151|CDS|ENSG00000107863|bound_else_gene|NA|bound_elsewhere_windowed (ssRNA)
RNA: GGGAGUUCUACAGUCCGACGAUCUUUACAAGAGGCUGAAACUGAGCAAUCAGAUACUUUAGAUAAUAAAGAAGCUGUCAUCCUAAGGGAAAAACCUCCAUCUGGACGCCAGACACCGCAGCCUUUAAGGCAUCAGUCUUACAUCAACAGAGGAUUGAGCAUCA
B6: chr6:21598408:21598509:+|3pUTR|ENSG00000124766|msi1|FALSE|bound_elsewhere (ssRNA)
RNA: GGGAGUUCUACAGUCCGACGAUCCGUUAAGGGUUUUUGUUUUUAAACUUUUUUUUGCCAUCCAUCCUGUGCAAUAUGCCGUGUAGAAUAUUUGUCUUAAAAUUCAAGGCCACAAAAACAAUGUUUGGGGGAAAAAAAAGAAAACAACAGAGGAUUGAGCAUCA
B7: chr8:47773456:47773635:-|3pUTR|ENSG00000253729|msi1_unk|FALSE|overlapping (ssRNA)
RNA: GGGAGUUCUACAGUCCGACGAUCGUUUUUUCCUUUCAUUUUAUUCUCUUCUAGUUUUGACAUUUUAUGAUAGAUUUGCUCUCUAGAAGGAAACGUCUUUAUUUAGGAGGGCAAAAAUUUUGGUCAUAGCAUUCACUUUUGCUACAACAGAGGAUUGAGCAUCA
B8: chr15:78897113:78897311:+|3pUTR|ENSG00000185787|unk|total|mutant (ssRNA)
RNA: GGGAGUUCUACAGUCCGACGAUCUAACAAUUGAUGUUUGUUUUCUGUUUGAUUUUAAACAGAGAAAAAAUAAAAGGGGGUAACCGCUCCUUUUUUCUUCUUUCUUUUUUUUUUUCAUUUCAAAAUUGCUGCCAGUGUUUUCAACAACAGAGGAUUGAGCAUCA
B9: chr2:25232207:25232317:-|3pUTR|ENSG00000119772|unk|FALSE|unique (ssRNA)
RNA: GGGAGUUCUACAGUCCGACGAUCGGUGAGGGCCCGACGGGCAGGUGCUUGCCUGGGUAGAUGGGGUGUAGAUAUGUGGCAUAUAGAGAUAUAUAUUUUAUAAUGGGAGGGGGGAUGGCACCUCCUGGGACUGGUAGAGCUGGGCAACAGAGGAUUGAGCAUCA
B10: chr5:10971835:10973713:-|three_prime_utr|ENSG00000169862|control|control|control (ssRNA)
RNA: GGGAGUUCUACAGUCCGACGAUCGCAUGUGCAUGCAUACCACAAGACAUUUCUUUCUGUUUUGUUUUUUUCUCCUGCAAAUUUAGUUUGUUAAAGCCUGUUCCAUAGGAAGGCUGUGAUAACCAGUAAGGAAAUAUUAAGAGCCAACAGAGGAUUGAGCAUCA
B11: chr10:11920118:11920232:-|3pUTR|ENSG00000151461|unk|FALSE|unique (ssRNA)
RNA: GGGAGUUCUACAGUCCGACGAUCGUAGUAUAUUUAGUCGGAGAGCACAUCUGUAUGCGACAACUUGAUUACAUCUUUUUUUCUAGCUAUUUUGCAUUUUUUCUUUUACCAUGUUUCAGUUUCUGCAUGUAGAUUUAAAUAAAACAACAGAGGAUUGAGCAUCA
B12: chr16:18805221:18805325:-|3pUTR|ENSG00000157106|unk|FALSE|bound_elsewhere (ssRNA)
RNA: GGGAGUUCUACAGUCCGACGAUCAAGAAUUCUAUGUUCUGAAAUGCACACUUUUAGAAUGUUUUUCUUUGAAAACAGGCUAAUAGUUUUUUCUUUUUUUGACAAAGUUUCAGCUCCUCUUUAAAGUUAUUGUGUCAUUUUUCUCAACAGAGGAUUGAGCAUCA
B13: chr2:1633824:1633925:-|3pUTR|ENSG00000130508|msi1|total|mutant (ssRNA)
RNA: GGGAGUUCUACAGUCCGACGAUCAUUUAAUUCUUUUAAAAUGAAAAAUUGGUGCUACUAUUAAAUUGCACAGUUGAAUCAUUCCGGCGCCUAAAUUGAUUUUGCCUCCCAACACCAUUUCUUUUUAAAUAAAGCAGGAUACCUCAACAGAGGAUUGAGCAUCA
B14: chr16:85089731:85089832:+|3pUTR|ENSG00000135709|msi1|FALSE|unique (ssRNA)
RNA: GGGAGUUCUACAGUCCGACGAUCUUGGAAGGUUUCCCUCCGGGGAAUGCCUCCCUGGAAUGUUCCAGAGACGGAACAUUCUCUAGAGACAACAGUCUGUGCUGCAGAUUGGUUGGAUCACAGAAUGUGUGUCUGGGGCAUUAUCAACAGAGGAUUGAGCAUCA
B15: chr2:135868693:135868794:-|CDS|ENSG00000076003|msi1|FALSE|unique (ssRNA)
RNA: GGGAGUUCUACAGUCCGACGAUCCCCAGAGCUUGUGAGCGGAACUUUUCUGUGCUUGGACUGUCAGACAGUGAUCAGGGAUGUAGAACAGCAGUUCAAAUACACACAGCCAAACAUCUGCCGAAAUCCAGUUUGUGCCAACAGCAACAGAGGAUUGAGCAUCA
B16: ENSG00000070961:be:win_4701|3pUTR|ENSG00000070961|bound_else_gene|NA|bound_elsewhere_windowed (ssRNA)
RNA: GGGAGUUCUACAGUCCGACGAUCUUUUCUAAUCUUUAGAGACCUUCACACAGCAUGAGGGCUGUUGGCAUUUUGAAAAAGGUUAAUAAGUAGAAGCAUACAUGUUUUCCUUUUGUUUUUGAAACUUGUUUGUAAACAUAAAUACAACAGAGGAUUGAGCAUCA
B17: chr2:32415991:32416109:+|CDS|ENSG00000115760|unk|total|mutant (ssRNA)
RNA: GGGAGUUCUACAGUCCGACGAUCUGACAUUUCUACUCUUGGACACCUGGUAAUAACCACUCAGGGAGGAUAUGUAAAAAUACCCGAUCUUUCAAACUUUGAAAUUUUGGCCAAAGUGGAGCCUCCCAAAAAGGAGGGCACUGACAACAGAGGAUUGAGCAUCA
B18: chr1:31365252:31365939:-|three_prime_utr|ENSG00000121769|control|control|control (ssRNA)
RNA: GGGAGUUCUACAGUCCGACGAUCAUCCAGUUCCAGUUCCCAUGGUGUAUGUGGUUUUUUUUUUUUUUUUUUAACUGCACUCAUAGGGUGCUCUGAGGUCAAUAAAGCAGAGCCAAGGCCACCCAGUUGCCUUUUUGCCUUUGGCAACAGAGGAUUGAGCAUCA
B19: ENSG00000136451:be:win_4251|3pUTR|ENSG00000136451|bound_else_gene|NA|bound_elsewhere_windowed (ssRNA)
RNA: GGGAGUUCUACAGUCCGACGAUCCUAAACAGUUGUAUUAGAUAAUCCUUAAAUCUGACAUCCAGCCUGUUACGCUCUAGGGCUCGCUGCUUGGCCUGCGUUUGCUUUUUAUUGUGUAUCCGUUCCCCUCCUACGGUGUGCUCCCAACAGAGGAUUGAGCAUCA
B20: chr8:30995801:30996592:-|three_prime_utr|ENSG00000172733|control|control|control (ssRNA)
RNA: GGGAGUUCUACAGUCCGACGAUCUUGUUUUUUUUAAUUCAUCAAGCCUUUCGUUUUCAAACCACCAUUUGUCAGCCUUGAGGUAGAGAGACAUAUAGAUUUGAAAAUACUUUCUUAAGAGAUCAUGUAACUAUAUAACUCUGACAACAGAGGAUUGAGCAUCA
B21: chr8:102207567:102207681:-|3pUTR|ENSG00000048392|unk|FALSE|unique (ssRNA)
RNA: GGGAGUUCUACAGUCCGACGAUCUAUUAAUUGCAAUGAUGUUGUAAUAAAAUACUCUCAUUUCCUUAAAAUAAUUGUGAUUCUAGGUCCUAGGAUCUAGAAUUAGAUCUUUGUAUUUUUAAUGCUUAGGGGAAGAAUAUAAGUCAACAGAGGAUUGAGCAUCA
B22: chr1:205657850:205659233:-|three_prime_utr|ENSG00000158715|control|control|control (ssRNA)
RNA: GGGAGUUCUACAGUCCGACGAUCACUUCCAGCACAUUGGGGUGGAGGGCCUGCCUCACUGGGUCCCAGCUCCCCGCUCCUGUUAGCCCCAUGGGGCUGCCGGGCUGGCCGCCAGUUUCUGUUGCUGCCAAAGUAAUGUGGCUCCAACAGAGGAUUGAGCAUCA

This is one part of the list.

The target of this experiment is MSI1 full-length (mouse, UniProt Q61474 1-362). Briefly: nsRBNS (natural sequence RNA bind-n-seq); RBNS binding buffer (assumed for nsRBNS): 25 mM Tris pH 7.5, 150 mM KCl, 3 mM MgCl2, 0.01% Triton X-100, 500 ug/ml BSA, 20 U/ml SUPERase-In, 4 C; UNK is unkempt and MSI1 is Musashi-1; names of the RNAs are library labels; protein concentration not given here; high values mean tight binding.
Chain of UniProt Q61474 (Q61474 whole entry): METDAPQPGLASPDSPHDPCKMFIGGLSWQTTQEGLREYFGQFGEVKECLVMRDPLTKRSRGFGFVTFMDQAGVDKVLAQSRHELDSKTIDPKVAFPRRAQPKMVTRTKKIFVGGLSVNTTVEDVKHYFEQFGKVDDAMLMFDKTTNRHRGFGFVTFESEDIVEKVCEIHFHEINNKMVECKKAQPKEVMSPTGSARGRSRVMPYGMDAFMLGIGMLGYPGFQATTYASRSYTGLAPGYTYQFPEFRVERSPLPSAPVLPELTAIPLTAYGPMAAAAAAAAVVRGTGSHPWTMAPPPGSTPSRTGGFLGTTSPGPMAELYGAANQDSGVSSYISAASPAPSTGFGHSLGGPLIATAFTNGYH
For the molecule B1, the binding signal is 0.198 enrichment R.

In turn, B2 gave a binding signal of 0.89 enrichment R.

Consider B3, for which the binding signal stood at 0.458 enrichment R.

B4 displayed a binding signal of 0.433 enrichment R.

The molecule B5 displayed a binding signal of 0.441 enrichment R.

As to B6, the binding signal was 0.561 enrichment R.

B7 registered a binding signal of 7.45 enrichment R.

For the molecule B8, the binding signal was 0.476 enrichment R.

The molecule B9 yielded a binding signal of 2.94 enrichment R.

The molecule B10 registered a binding signal of 2.18 enrichment R.

In the case of B11, the binding signal stood at 23.3 enrichment R.

In turn, B12 came in with a binding signal of 0.498 enrichment R.

B13: the binding signal is 0.556 enrichment R.

Molecule B14 yielded a binding signal of 0.208 enrichment R.

Regarding B15, the binding signal is 0.599 enrichment R.

In turn, B16 showed a binding signal of 0.664 enrichment R.

With B17, the binding signal is 0.316 enrichment R.

Molecule B18 showed a binding signal of 1.27 enrichment R.

Turning to B19, the binding signal was 1.01 enrichment R.

On to B20, for which the binding signal was found to be 0.712 enrichment R.

In the case of B21, the binding signal came to 0.592 enrichment R.

Regarding B22, the binding signal was 0.483 enrichment R.
